# From publication PMC9911399, “Two distinct binding modes provide the RNA-binding protein RbFox with extraordinary sequence specificity”
# Where a chain is given by its changes, count along the chain named. Some of the results follow.
# T1: RBFOX1 RRM (Homo sapiens, UniProt Q9NWB1 109-208)
# T1 sequence: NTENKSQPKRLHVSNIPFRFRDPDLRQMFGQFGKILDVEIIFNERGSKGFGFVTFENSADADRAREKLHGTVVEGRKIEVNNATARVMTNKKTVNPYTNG
# B1: GGUACGG (DNA:RNA)
# RNA: GGGAGACCGGAAUUCAGAUUGUCCGGUACGGUUAAAUCCCGUCGUAGCCACCA
# DNA 1: CAATCTGAATTCCGGTCTCCC
# DNA 2: TGGTGGCTACGACGGGATT
# B2: GGGCUGU (DNA:RNA)
# RNA: B1 RNA with U27G, A28C, C29U, G31U
# DNA 1: CAATCTGAATTCCGGTCTCCC
# DNA 2: TGGTGGCTACGACGGGATT
# B3: UCGGACG (DNA:RNA)
# RNA: B1 RNA with G25U, G26C, U27G, A28G, C29A, G30C
# DNA 1: CAATCTGAATTCCGGTCTCCC
# DNA 2: TGGTGGCTACGACGGGATT
# B4: AGGUUUG (DNA:RNA)
# RNA: B1 RNA with G25A, U27G, A28U, C29U, G30U
# DNA 1: CAATCTGAATTCCGGTCTCCC
# DNA 2: TGGTGGCTACGACGGGATT
# B5: CACUAUA (DNA:RNA)
# RNA: GGGAGACCGGAAUUCAGAUUGUCCCACUAUAUUAAAUCCCGUCGUAGCCACCA
# DNA 1: CAATCTGAATTCCGGTCTCCC
# DNA 2: TGGTGGCTACGACGGGATT
# B6: CUGACAG (DNA:RNA)
# RNA: B1 RNA with G25C, G26U, U27G, G30A
# DNA 1: CAATCTGAATTCCGGTCTCCC
# DNA 2: TGGTGGCTACGACGGGATT
# B7: CUAGCGG (DNA:RNA)
# RNA: B1 RNA with G25C, G26U, U27A, A28G
# DNA 1: CAATCTGAATTCCGGTCTCCC
# DNA 2: TGGTGGCTACGACGGGATT
# B8: CAAUAAG (DNA:RNA)
# RNA: B5 RNA with C27A, U30A, A31G
# DNA 1: CAATCTGAATTCCGGTCTCCC
# DNA 2: TGGTGGCTACGACGGGATT
# B9: GACCGUA (DNA:RNA)
# RNA: B5 RNA with C25G, U28C, A29G
# DNA 1: CAATCTGAATTCCGGTCTCCC
# DNA 2: TGGTGGCTACGACGGGATT
# B10: CACGUGA (DNA:RNA)
# RNA: B5 RNA with U28G, A29U, U30G
# DNA 1: CAATCTGAATTCCGGTCTCCC
# DNA 2: TGGTGGCTACGACGGGATT
# B11: UAAGUAC (DNA:RNA)
# RNA: B5 RNA with C25U, C27A, U28G, A29U, U30A, A31C
# DNA 1: CAATCTGAATTCCGGTCTCCC
# DNA 2: TGGTGGCTACGACGGGATT
# B12: AGCUCUA (DNA:RNA)
# RNA: B5 RNA with C25A, A26G, A29C
# DNA 1: CAATCTGAATTCCGGTCTCCC
# DNA 2: TGGTGGCTACGACGGGATT
# B13: GAAGAAU (DNA:RNA)
# RNA: B5 RNA with C25G, C27A, U28G, U30A, A31U
# DNA 1: CAATCTGAATTCCGGTCTCCC
# DNA 2: TGGTGGCTACGACGGGATT
# B14: UUAUGAU (DNA:RNA)
# RNA: B5 RNA with C25U, A26U, C27A, A29G, U30A, A31U
# DNA 1: CAATCTGAATTCCGGTCTCCC
# DNA 2: TGGTGGCTACGACGGGATT
# B15: UUGAUGU (DNA:RNA)
# RNA: B1 RNA with G25U, G26U, U27G, C29U, G31U
# DNA 1: CAATCTGAATTCCGGTCTCCC
# DNA 2: TGGTGGCTACGACGGGATT
# B16: AAGGAGA (DNA:RNA)
# RNA: B5 RNA with C25A, C27G, U28G, U30G
# DNA 1: CAATCTGAATTCCGGTCTCCC
# DNA 2: TGGTGGCTACGACGGGATT
# B17: UACGGCG (DNA:RNA)
# RNA: B5 RNA with C25U, U28G, A29G, U30C, A31G
# DNA 1: CAATCTGAATTCCGGTCTCCC
# DNA 2: TGGTGGCTACGACGGGATT
# B18: GCAUUCC (DNA:RNA)
# RNA: B5 RNA with C25G, A26C, C27A, A29U, U30C, A31C
# DNA 1: CAATCTGAATTCCGGTCTCCC
# DNA 2: TGGTGGCTACGACGGGATT
# B19: GCAUGAC (DNA:RNA)
# RNA: B5 RNA with C25G, A26C, C27A, A29G, U30A, A31C
# DNA 1: CAATCTGAATTCCGGTCTCCC
# DNA 2: TGGTGGCTACGACGGGATT
# B20: GGCGAGG (DNA:RNA)
# RNA: B1 RNA with U27C, A28G, C29A
# DNA 1: CAATCTGAATTCCGGTCTCCC
# DNA 2: TGGTGGCTACGACGGGATT
# B21: AGGUUUC (DNA:RNA)
# RNA: B5 RNA with C25A, A26G, C27G, A29U, A31C
# DNA 1: CAATCTGAATTCCGGTCTCCC
# DNA 2: TGGTGGCTACGACGGGATT
# B22: UCACCAC (DNA:RNA)
# RNA: B1 RNA with G25U, G26C, U27A, A28C, G30A, G31C
# DNA 1: CAATCTGAATTCCGGTCTCCC
# DNA 2: TGGTGGCTACGACGGGATT
# B23: GGUAGUU (DNA:RNA)
# RNA: B1 RNA with C29G, G30U, G31U
# DNA 1: CAATCTGAATTCCGGTCTCCC
# DNA 2: TGGTGGCTACGACGGGATT
# B24: CCCUGGU (DNA:RNA)
# RNA: B5 RNA with A26C, A29G, U30G, A31U
# DNA 1: CAATCTGAATTCCGGTCTCCC
# DNA 2: TGGTGGCTACGACGGGATT
# B25: UACACAA (DNA:RNA)
# RNA: B5 RNA with C25U, U28A, A29C, U30A
# DNA 1: CAATCTGAATTCCGGTCTCCC
# DNA 2: TGGTGGCTACGACGGGATT
# B26: UCCGCCC (DNA:RNA)
# RNA: B5 RNA with C25U, A26C, U28G, A29C, U30C, A31C
# DNA 1: CAATCTGAATTCCGGTCTCCC
# DNA 2: TGGTGGCTACGACGGGATT
# B27: GGCAUAC (DNA:RNA)
# RNA: B1 RNA with U27C, C29U, G30A, G31C
# DNA 1: CAATCTGAATTCCGGTCTCCC
# DNA 2: TGGTGGCTACGACGGGATT
# B28: GAGUGCG (DNA:RNA)
# RNA: B5 RNA with C25G, C27G, A29G, U30C, A31G
# DNA 1: CAATCTGAATTCCGGTCTCCC
# DNA 2: TGGTGGCTACGACGGGATT
# B29: UGAACCG (DNA:RNA)
# RNA: B1 RNA with G25U, U27A, G30C
# DNA 1: CAATCTGAATTCCGGTCTCCC
# DNA 2: TGGTGGCTACGACGGGATT
# B30: CGCGCAC (DNA:RNA)
# RNA: B5 RNA with A26G, U28G, A29C, U30A, A31C
# DNA 1: CAATCTGAATTCCGGTCTCCC
# DNA 2: TGGTGGCTACGACGGGATT
# B31: AGCCUUA (DNA:RNA)
# RNA: B5 RNA with C25A, A26G, U28C, A29U
# DNA 1: CAATCTGAATTCCGGTCTCCC
# DNA 2: TGGTGGCTACGACGGGATT
# Target: T1, RBFOX1 RRM
# Assay: EMSA; HiTS-Eq, 1 nM pool, 10 min; buffer printed only for the single-RNA assays: 10 mM Tris pH 7.5, 150 mM NaCl, 3.4 mM EDTA, 0.001% NP-40, 30 C
# Details: tags: His6 N-terminal (pET28a); label: 5' 32P
# How it was run: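 These values rest on relative association constants, computed from read-count changes of each RNA species versus the control reaction and normalised to the cognate motif. Reads came from free RNA recovered by 8% native PAGE after purified RbFox RRM (wild type or mutant) at increasing concentrations was equilibrated for 10 min in 50 µL with 1 nM of a 5′-radiolabelled pool with 7 randomized nucleotides and DNA-annealed flanks.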
row,Binder,binding signal
1,B1,0.00424 KA relative to UGCAUGU
2,B2,0.0234 KA relative to UGCAUGU
3,B3,0.0078 KA relative to UGCAUGU
4,B4,0.0194 KA relative to UGCAUGU
5,B5,0.00179 KA relative to UGCAUGU
6,B6,0.0131 KA relative to UGCAUGU
7,B7,0.00506 KA relative to UGCAUGU
8,B8,0.00824 KA relative to UGCAUGU
9,B9,0.00492 KA relative to UGCAUGU
10,B10,0.0101 KA relative to UGCAUGU
11,B11,0.0139 KA relative to UGCAUGU
12,B12,0.00481 KA relative to UGCAUGU
13,B13,0.0101 KA relative to UGCAUGU
14,B14,0.0155 KA relative to UGCAUGU
15,B15,0.0178 KA relative to UGCAUGU
16,B16,0.00618 KA relative to UGCAUGU

row,Binder,binding signal
1,B17,0.0116 KA relative to UGCAUGU
2,B18,0.00945 KA relative to UGCAUGU
3,B19,0.599 KA relative to UGCAUGU
4,B20,0.0203 KA relative to UGCAUGU
5,B21,0.0155 KA relative to UGCAUGU
6,B22,0.000265 KA relative to UGCAUGU
7,B23,0.00811 KA relative to UGCAUGU
8,B24,0.015 KA relative to UGCAUGU
9,B25,0.00283 KA relative to UGCAUGU
10,B26,0.00894 KA relative to UGCAUGU
11,B27,0.00783 KA relative to UGCAUGU
12,B28,0.0156 KA relative to UGCAUGU
13,B29,0.0108 KA relative to UGCAUGU
14,B30,0.0123 KA relative to UGCAUGU
15,B31,0.00217 KA relative to UGCAUGU
